{"source": "PubChem BioAssay AID1345082", "about": "(National Center for Advancing Translational Sciences (NCATS), 2018)", "note": "The campaign covered roughly 94,000 compounds. About 4,000 (4.3%) were called active. This list was built around the results that the source calls inconclusive (neither active nor inactive); the mix of calls is not that of the screen. Calls come from the whole dose curve; as a rule, active = well fitted inhibition curve with a large enough effect; inconclusive = small, poorly fitted or top-dose-only effect; inactive = no such curve, though single readings can be large or run the other way. A potency beside an inconclusive call is a rough fit, not a confirmed value. Potency is the fitted concentration of half-maximal effect; tags give direction and shape of the fitted curve.", "data": [{"test": "Cytotoxic Profiling in NIH 3T3 Cell Line of Diverse Libraries Using Quantitative High-Throughput Screening; note: nearly all actives have a fitted effect of over 55% in size", "conditions": "NIH 3T3 viability, CellTiter-Glo ATP luminescence, 48-72 h; series mostly up to 96.7 µM", "summary_of_the_method": "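Cytotoxicity was measured by CellTiter-Glo ATP luminescence after 48 or 72 h compound exposure at 37 °C. Mouse NIH 3T3 fibroblasts were seeded at 400 cells/well and dosed by 23 nL pin transfer.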", "values": [{"smiles": "CC(C)=CCC1(CO)CCCN(Cc2[nH]c3ccc(F)cc3c2C)C1", "note": "(centres undefined)", "Potency": "active: 22.4 µM"}, {"smiles": "Cc1ccc(-c2cc3c(=O)n(CCNC(=O)Cc4ccccc4Cl)ccn3n2)cc1C", "Potency": "inactive"}, {"smiles": "O=C([C@@H]1C[C@H](F)CN1S(=O)(=O)Cc1cccc(Cl)c1)N1CCCCC1", "Potency": "inconclusive: 70.8 µM [inhibitor, single point]"}, {"smiles": "Cc1ccsc1C(=O)NC1CCCN(c2cc(-c3ccc(F)cc3)[nH]n2)C1", "note": "(centres undefined)", "Potency": "inconclusive: 44.7 µM [inhibitor, partial curve, poor fit]"}, {"smiles": "C=CCN1CC(C)(C)CN(S(=O)(=O)c2ccc(C)cc2)CC1=O", "Potency": "inconclusive: 50.1 µM [inhibitor, partial curve, poor fit]"}, {"smiles": "O=C(OCc1ccccc1)N1CCOCC12CCN(Cc1ccc(O)cc1)CC2", "Potency": "active: 79.4 µM"}, {"smiles": "O=C(C1CCCN(C(=O)C2CC2)C1)N1CCC(N2CCOCC2=O)CC1", "note": "(centres undefined)", "Potency": "inactive"}, {"smiles": "CC#CCn1cc2c3c(cccc31)[C@H](CC(C)C)N[C@H](C(=O)N1CCOCC1)C2", "Potency": "inconclusive: 10 µM [inhibitor, full curve, poor fit]"}, {"smiles": "NC(=O)c1cc[nH]c1C1CCCN(C(=O)COc2ccc(Cl)cc2)C1", "note": "(centres undefined)", "Potency": "inactive"}, {"smiles": "COc1cc(C)ccc1C(=O)N1CCC(Cn2cc(C3CC3)nn2)CC1", "Potency": "inconclusive: 44.7 µM [inhibitor, partial curve, poor fit]"}, {"smiles": "CC1(COc2cccnc2)COc2ccc(C(=O)NCC3CCOCC3)cc2N1", "note": "(centres undefined)", "Potency": "inactive"}, {"smiles": "O=C(NCC1CCCCC1)C1CCCN1C(=O)c1cccc(-c2cccnc2)c1", "note": "(centres undefined)", "Potency": "inactive"}, {"smiles": "COc1cccc(Nc2cc3c(cn2)CN(C(C)=O)CCN3)c1", "Potency": "inconclusive: 10 µM [inhibitor, full curve]"}, {"smiles": "Cc1cc(CN(C)Cc2cn(-c3cccc(F)c3)nc2-c2ccc(C)o2)n[nH]1", "Potency": "inconclusive: 50.1 µM [inhibitor, partial curve, poor fit]"}, {"smiles": "CNC(=O)[C@H]1C[C@]2(CCCCN(CCO)C2=O)N(C(=O)Cc2cccs2)[C@H]1c1ccco1", "Potency": "inconclusive: 79.4 µM [inhibitor, partial curve, poor fit]"}, {"smiles": "Cc1cnc(CCNC(=O)Nc2ccc3c(c2)OCCO3)n1C1CCC1", "Potency": "inconclusive: 39.8 µM [inhibitor, partial curve]"}, {"smiles": "COc1ccccc1C(=O)N1CCn2c(nnc2-c2ccc(Cl)cc2)C1", "Potency": "inconclusive: 35.5 µM [inhibitor, full curve, poor fit]"}, {"smiles": "O=C([C@@H]1Cc2nc[nH]c2CN1Cc1ccc(C(F)(F)F)cc1)N1CCOCC1", "Potency": "inactive"}, {"smiles": "COc1cccc(-c2cc(C(=O)NCc3ccc(C(F)(F)F)cc3)c3cnn(C)c3n2)c1", "Potency": "inactive"}]}]}
